This is one part of the list.

The test system of this assay is HepG2. As to the kind of experiment: cytotoxicity call (relative viability < 0.9). The following applies: 10 µM.
In the case of `C[C@H](CO)N1C[C@H](C)[C@H](CN(C)C(=O)c2ccccc2)Oc2cc(C#CC3(O)CCCC3)ccc2S1(=O)=O`, the cytotoxicity call was “inactive”.
As for `Cc1nc(=O)[nH]c(C(=O)O)c1C`, the cytotoxicity call is “inactive”.
For `C[C@@H]1CN([C@@H](C)CO)C(=O)c2cc(NC(=O)Nc3cccc4ccccc34)ccc2O[C@H]1CN(C)S(=O)(=O)c1cccs1` the value was “inactive”; for `O=C(CSc1nnc(-c2ccccc2)n1C1CCCCC1)Nc1ccc(S(=O)(=O)Nc2ccccn2)cc1`, “inactive”.
Take `COc1ccc(S(=O)(=O)N(C)C[C@H]2Oc3ccc(NC(=O)Nc4c(C)noc4C)cc3CC(=O)N([C@H](C)CO)C[C@H]2C)cc1`: the cytotoxicity call is “inactive”.
Take `Cc1cc(C(=O)Nc2cccc3c2O[C@@H](CN(C)S(=O)(=O)c2ccccc2)[C@@H](C)CN([C@@H](C)CO)C3=O)n(C)n1`: the cytotoxicity call was “inactive”.
For `CC(C)CC#Cc1cnc2c(c1)C(=O)N([C@@H](C)CO)C[C@@H](C)[C@@H](CN(C)C(=O)CN1CCOCC1)O2`, the cytotoxicity call is “inactive”.
Next, `C=CCOC(=O)[C@@H]1[C@H]2C(=O)O[C@H](c3ccccc3)[C@H](c3ccccc3)N2[C@H](c2ccc(OCCOC(=O)[C@@H]3C[C@@H]4C(=O)N[C@@H](CCCC[N+](C)(C)C)C(=O)N4[C@@H]3c3cccc(OCCO)c3)cc2)[C@@]12C(=O)Nc1ccccc12`: “inactive”; `Cc1ccc(S(=O)(=O)N(C)C[C@H]2Oc3ncc(C#CC4(O)CCCC4)cc3C(=O)N([C@@H](C)CO)C[C@H]2C)cc1`: “inactive”.
With `Cc1ccc(O)cc1`, the cytotoxicity call was “inactive”.
Next, `COc1ccc(S(=O)(=O)Nc2cccc3c2O[C@@H](CN(C)S(=O)(=O)c2ccccc2)[C@H](C)CN([C@H](C)CO)C3=O)cc1`: “inactive”.
